Laboratory results as given in the RNAGym collection of RNA variant scans (doi:10.7554/elife.90254).
The source gives no read counts; variants with many changes may rest on few reads.

B1: LINE1-mini (parent)
chain: GGCAGAGCUCAACACAGCGUGGCAAAGUGGCUGUGGCUAGACUGCC

Variants of: B1
Assay: self-cleavage, relative activity (ratio to wild type); higher = more cleavage; in vitro, sequencing; the parent is a self-cleaving ribozyme

| Variant | self-cleavage |
| --- | --- |
| U9G G21C G27A | 0.05 |
| G2U G19A C31U G40C | 0.01 |
| C8G A41G C45A | 0.03 |
| A4C C18G U28A | 0 |
| A14U A26U G27C | 0.02 |
| G2A C3G A4G G19A G21A G35C G36U | 0.03 |
| C10A G19A G36A | 0.03 |
| G2U C31A U43C | 0.03 |
| G1C C10A C18A C23U | 0.01 |
| G7C C15G U38A | 0.01 |
| C23G G30U G35U | 0.06 |
| C3A A4U A12G G30U U38G | 0.1 |
| G2C A12G A26C U32C G44A | 0.1 |
| G1U G29C G36U | 0.03 |
| C15A C31A U38A | 0.01 |
| C13G A16C G19U G22A | 0.01 |
| C10A G17C U38C | 0.1 |
| A4U G5A C18U A24G G33U | 0.06 |
| A6C U20C G33U G35U G36A | 0.04 |
| G1A C3A A25U G40A | 1.24 |
| G5A U43C C45U | 0.09 |
| G1C C10A A14G | 0.01 |
| A11G A14G G19C G22A C23G | 0.01 |
| G1A G2C G21U C23A A26G U32G | 0.05 |

| Variant | self-cleavage |
| --- | --- |
| A12G G19C C23U G27U | 0.02 |
| C13A C15A C18A | 0.06 |
| U9A A11G G17U | 0.01 |
| C18A G19U G21C G29A G44C | 1.11 |
| A16C U28G G40A | 0.01 |
| A4G A6U C15A G21C G30U | 0.03 |
| G1U A6C C10A A25U U43C | 0 |
| C3A A11U G29U C45G C46U | 0 |
| A6G G19U G33U | 0.02 |
| G5A G7C G30A | 0.48 |
| G7U C8A A25G C42G | 0.62 |
| C13A C15A G17C G22C A24C | 0.11 |
| G1U A14C G35A | 0 |
| A4G A14G G19U G21U G35U U38G | 0.01 |
| C8A A11U C42A U43G | 0.01 |
| A6C A14G G17U G19U U32A | 0.02 |
| G19A C45U C46G | 0.81 |
| C8A G27U C31G G40U G44C | 0.01 |
| G2C A14U G21A C31U A41C | 0.12 |
| U9G A14U A25U G33U G40U C42A | 0.01 |
| C10U A11U G33A | 0.06 |
| C10U C13G A25C U28A C46G | 0.01 |
| C3U G17U G36U | 0.07 |
| G2A A16G G19U G21A | 1.62 |

| Variant | self-cleavage |
| --- | --- |
| C8A G27U C42A | 0.16 |
| G7A C10A G33A | 0.05 |
| A16U G19A U28A G40U | 0.21 |
| C3U C23A G29C G36U C37U A41U | 0.01 |
| C3G U28G C31G C42A C45A | 0.02 |
| A12U A39U G40U | 0.13 |
| A25G C37G G44U | 0.02 |
| C10A A25U G27A U32A | 0.04 |
| G2A G17U U20G G33U | 0.06 |
| G5C C23A G36A | 0.05 |
| U9G A11U A16U G17A | 0 |
| G7U C8U C45A | 0.22 |
| G2C A6C C8A G17A | 0.16 |
| G2A G7U C8A G40U | 0.52 |
| G2A C10U U32A G44U C46U | 0.1 |
| A24G A25G G27U | 0.53 |
| G5A G19U G29U G35U | 0 |
| G27A U32C G36U C42U | 0.12 |
| A16C C18U U32G | 0.65 |
| G7A U20G U32C | 0.09 |
| G7A A11U U20C C37A A41C | 0.02 |
| G22C G29A U38C | 0.34 |
| A4U A24G G30U | 2.44 |
| C3U U9C G19C G36C U43C | 0.02 |

| Variant | self-cleavage |
| --- | --- |
| U9A A16G C37A | 0.07 |
| A12C A16G A24G | 0.01 |
| A6G C23A U28C | 0.07 |
| C18A G30A G40C | 0.03 |
| C8G A39U G40A | 0.01 |
| C10A C23G C31A C37U | 0 |
| G22U A39U U43C | 0.04 |
| C3G C13U C18A U28G | 0.08 |
| C10U G19U G29U | 0.57 |
| A4G G5C G27U A41C | 0.24 |
| C8U G33C G44A | 0.04 |
| A24U G27U C45A | 0.87 |
| A12U U20C U38A C46A | 0.13 |
| G7C C13U U32G G44A | 0.1 |
| G1C G7C G22U U34C G40A C46G | 0.03 |
| A12U G19U A24C A25C G30U C31G C46A | 0.01 |
| U9A U34A A39G | 0.51 |
| G1C A4G G5A G17C | 0.02 |
| G2C A26G G27C | 0.33 |
| C3U G27C G33A G40C | 0.11 |
| U9C U20A G27U | 0.02 |
| C13A C18G U28G G29C C31U U38C | 0.01 |
| A14U C15A G44A | 0.05 |
| G2C C10U A24G A26U U28G | 0.01 |

| Variant | self-cleavage |
| --- | --- |
| C10G G17A A25G U32A | 0.02 |
| C10A A41U U43G | 0 |
| G5U U9A C13U A16C | 0.06 |
| A6C C8A C31G A41C | 0.13 |
| C10U A12G G36U U43G | 0.01 |
| A4C G19A G21C | 0.09 |
| C10A G19C U20C | 0.02 |
| G19C G21U G22A G30U U34A G44C | 0.07 |
| C15U G21U A25G A26U | 0.04 |
| G5C G29C A39U | 0.02 |
| G2U C8G A24C C45G | 0.01 |
| G1A G2C C23U | 0.21 |
| C15G C23U G29U C37A A39G G44C | 0.01 |
| U28G U43G C46A | 0.15 |
| G19A G44A C46G | 0.1 |
| G2U G21A C23A | 0.06 |
| C8U C10U G36U | 0.03 |
| G2U G7U G35U | 0.04 |
| A6U A16U G30A G35C U43C | 0.2 |
| G1C C3U G7U G19C G30U U32G C42G | 0.04 |
| C13G C23G A39C | 0.12 |
| G2U C23G G35U | 0.03 |
| C3U G7A A14U | 0.51 |
| G1U C8G A14U U32A G40A | 0.01 |

| Variant | self-cleavage |
| --- | --- |
| A11U G36C U38A | 0.03 |
| A4U A26U C37U U43C | 0.03 |
| G19A G22A C31G | 0.44 |
| G19C G27U U32C G33A | 0.02 |
| G2U A12C G21A A26U | 0.02 |
| G5A U9A C15A G22A | 0.18 |
| C10A A11U U20C A25U U38C G40C G44U | 0 |
| G1C C3G A6U G29U | 0.21 |
| G2U C3A U32A C37G | 0 |
| C13A C23A A25U | 0.03 |
| C15A U38A G44A | 0.06 |
| A4C G5U A12U G29U U38A | 0.86 |
| C13A A24U C42A | 0.01 |
| A25U A39G C42G | 0.01 |
| G2A A4G C13U G36C | 0.05 |
| G2C C8A G21U | 0.03 |
| G2A C8U G17U G33C | 0.12 |
| A12U C31U C37U | 0.01 |
| A14C C37G U43C C45G | 0.08 |
| G1A G2C G5U A6G A14G G17U C18A G30U | 0.06 |
| A12G C42A U43C | 0.04 |
| U20A G30C C31A A41C C46A | 0.08 |
| C3A C10G A14G G21U A24C A41U | 0.03 |
| A4G C15G A16U A25C | 0.25 |

| Variant | self-cleavage |
| --- | --- |
| C3A G29C G40U | 0.06 |
| C13G A24G A25C G44U | 0.03 |
| U28G G29C U34G C46U | 0.2 |
| C13U U20G G40A | 0.06 |
| C13A A39C C42U | 0.48 |
| C3U A26C G40U C42A | 0.11 |
| G7A C10A A16C G17A G44A | 0.01 |
| U9C C10A G36A | 0.01 |
| A4G U28C U32A C46G | 0.04 |
| U32C C37A G40U C46U | 0.33 |
| C18U U20C G22U G36C C45A | 0.19 |
| G5C C10U C15G G22C G30U U32G G44C | 0.01 |
| A4U C31U U38A | 0.02 |
| G17U U20C A25G G33C | 0.09 |
| C8A G35U C37A A41U C45A | 0.03 |
| C13G C18G U34A | 0.19 |
| A6C C10A G19A A24G A25U | 0.24 |
| A12U G21U G35A C46A | 0.12 |
| G2U C10A G33C | 0.01 |
| A12C G19C U20C | 0 |
| G1C C15U G33U G35U | 0.05 |
| G5C U9A C37G | 0.09 |
| A16U G22C C31A G36A | 0.05 |
